# The other results are listed elsewhere or left out.
# Assays:
# [1] = test system: HSkMC (human skeletal muscle cells); test: cytotoxicity call (relative viability < 0.9); details: 10 µM
# [2] = test system: HepG2; test: cytotoxicity call (relative viability < 0.9); details: 10 µM
# [3] = test system: S. aureus RN4220; test: growth inhibition call (relative growth <= 0.2); details: 50 µM
Compound,cytotoxicity call [1],cytotoxicity call [2],growth inhibition call [3]
C[C@H]1CN([C@@H](C)CO)C(=O)c2cccc(NS(=O)(=O)c3ccc(F)cc3)c2O[C@H]1CN(C)S(=O)(=O)c1ccccc1,inactive,inactive,inactive
C[C@H](CO)N1C[C@H](C)[C@H](CN(C)C(=O)c2cc(-c3ccccc3)on2)OCc2cn(nn2)CCCC1=O,inactive,inactive,inactive
C[C@@H]1CCCCO[C@@H](CN(C)S(=O)(=O)c2ccc(Cl)cc2)[C@@H](C)CN([C@H](C)CO)C(=O)c2cc(NS(=O)(=O)c3ccc(F)cc3)ccc2O1,inactive,inactive,inactive
Cc1ccc(S(=O)(=O)Nc2ccc3c(c2)C(=O)N([C@@H](C)CO)C[C@H](C)[C@H](CN(C)S(=O)(=O)c2ccc(F)cc2)OCCCC[C@@H](C)O3)cc1,inactive,inactive,inactive
C[C@H]1CN([C@@H](C)CO)C(=O)Cc2cc(NC(=O)C3CC3)ccc2O[C@@H]1CN(C)C(=O)Nc1ccccc1,inactive,inactive,inactive
Cc1noc(C)c1NC(=O)N[C@H]1CC[C@H](CC(=O)N2CCN(C)CC2)O[C@@H]1CO,inactive,inactive,inactive
COc1ccc(NC(=O)Nc2ccc3c(c2)CC(=O)N([C@@H](C)CO)C[C@H](C)[C@H](CN(C)S(=O)(=O)c2c(C)noc2C)O3)cc1,inactive,inactive,inactive
C[C@@H]1CCCCO[C@H](CN(C)CC2CC2)[C@H](C)CN([C@@H](C)CO)C(=O)c2cc(NS(=O)(=O)c3cn(C)cn3)ccc2O1,inactive,inactive,inactive
C[C@H](CO)N1C[C@H](C)[C@H](CN(C)C(=O)Nc2ccccc2)Oc2cc(C#CC3(O)CCCC3)ccc2S1(=O)=O,inactive,inactive,inactive
COc1ccc(CN(C)C[C@H]2OCCCC[C@@H](C)Oc3ccc(NC(=O)c4ccncc4)cc3C(=O)N([C@H](C)CO)C[C@@H]2C)cc1,inactive,inactive,inactive
C[C@H]1CN([C@@H](C)CO)C(=O)Cc2cc(NC(=O)CCC(F)(F)F)ccc2O[C@H]1CN(C)C(=O)Nc1cccc2ccccc12,inactive,inactive,inactive
C[C@H]1CN([C@@H](C)CO)C(=O)CCCn2nncc2CO[C@@H]1CN(C)C(=O)c1ccc(N2CCN(C)CC2)cc1,inactive,inactive,inactive
COc1ccc(S(=O)(=O)N(C)C[C@H]2OCCCC[C@H](C)Oc3ccc(NC(=O)Nc4ccccc4)cc3C(=O)N([C@@H](C)CO)C[C@H]2C)cc1,inactive,inactive,inactive
COc1ccc2c(c1)[C@@]1(CC(=O)N(Cc3ccccc3)C1=O)C(=O)N2CCCn1c(=O)n(C)c2ccccc21,inactive,inactive,inactive
Cc1ccc(S(=O)(=O)N(C)C[C@H]2Oc3cc(C#Cc4ccncc4)ccc3S(=O)(=O)N([C@H](C)CO)C[C@@H]2C)cc1,inactive,active,inactive
CSc1scc(-c2cc(Cl)cc(Cl)c2)c1C#N,inactive,inactive,inactive
C[C@H]1CN([C@@H](C)CO)C(=O)c2cc(NC(=O)c3ccncc3)ccc2O[C@@H]1CN(C)Cc1ccc(-c2ccccc2)cc1,inactive,inactive,inactive
CNC(=O)[C@@H](c1ccccc1)N1CCc2cc(OC)c(OC)cc2[C@@H]1CCc1ccc(C(F)(F)F)cc1,inactive,inactive,inactive
C[C@H]1CN([C@@H](C)CO)C(=O)c2cc(NC(=O)Nc3ccc(C(F)(F)F)cc3)ccc2O[C@@H]1CN(C)C(=O)Nc1cccc2ccccc12,inactive,inactive,inactive
COc1ccc(S(=O)(=O)Nc2ccc3c(c2)C(=O)N([C@H](C)CO)C[C@H](C)[C@@H](CN(C)C(=O)Nc2c(C)noc2C)OCCCC[C@@H](C)O3)cc1,inactive,inactive,inactive
C[C@@H]1CCCCO[C@@H](CN(C)Cc2ccc(C(=O)Nc3ccccc3N)cc2)[C@@H](C)CN([C@H](C)CO)C(=O)c2cc(NC(=O)C3CCCCC3)ccc2O1,inactive,inactive,inactive
C[C@@H]1CCCCO[C@H](CN(C)C(=O)Nc2cccc3ccccc23)[C@H](C)CN([C@H](C)CO)C(=O)c2cc(NS(=O)(=O)c3ccc(F)cc3)ccc2O1,inactive,active,inactive
C[C@H]1CN([C@@H](C)CO)C(=O)c2cc(NC(=O)Cc3ccccc3)ccc2O[C@H]1CN(C)Cc1ccc(C(=O)Nc2ccccc2N)cc1,inactive,inactive,inactive
CO[C@H]1CN(C)C(=O)c2ccc(NC(=O)C3CC3)cc2OC[C@H](C)N(C(=O)C2CCOCC2)C[C@H]1C,inactive,inactive,inactive
C[C@H]1CN([C@@H](C)CO)C(=O)c2cccc(NC(=O)Nc3ccc(F)cc3)c2O[C@@H]1CN(C)CC1CCCCC1,inactive,inactive,inactive
O=C(Cc1ccccn1)NCC[C@@H]1CC[C@H](NC(=O)CN2CCOCC2)[C@H](CO)O1,inactive,inactive,inactive

Compound,cytotoxicity call [1],cytotoxicity call [2],growth inhibition call [3]
CON=C(C(=O)NC1C(=O)N2C(C(=O)OCOC(=O)C(C)(C)C)=C(C=Cc3scnc3C)CSC12)c1csc(N)n1 (stereo not drawn),inactive,inactive,active
Cc1noc(C)c1NC(=O)N(C)C[C@@H]1OCCCC[C@H](C)Oc2ccc(NC(=O)Nc3ccccc3)cc2C(=O)N([C@@H](C)CO)C[C@H]1C,inactive,inactive,inactive
C[C@@H]1CN([C@@H](C)CO)C(=O)c2cc(NC(=O)Nc3cccc4ccccc34)ccc2O[C@@H](C)CCCCO[C@@H]1CN(C)Cc1ccc(C(F)(F)F)cc1,inactive,inactive,inactive
C[C@@H]1CCCCO[C@H](CN(C)Cc2ccc(C(=O)Nc3ccccc3N)cc2)[C@@H](C)CN([C@@H](C)CO)C(=O)c2cc(NS(=O)(=O)c3ccc(Cl)cc3)ccc2O1,inactive,inactive,inactive
C[C@@H]1O[C@@H](O[C@H]2[C@H](OC(=O)[C@]34CCC(C)(C)C[C@H]3C3=CC[C@H]5[C@@]6(C)CC[C@H](O[C@@H]7O[C@H](CO)[C@@H](O)[C@H](O)[C@H]7O)C(C)(C)[C@@H]6CC[C@@]5(C)[C@]3(C)C[C@H]4O)OC[C@H](O)[C@@H]2O)[C@H](O)[C@H](O[C@@H]2OC[C@H](O)[C@H](O)[C@H]2O)[C@H]1O[C@@H]1OC[C@@H](O)[C@H](O[C@@H]2OC[C@H](O)[C@H](O)[C@H]2O)[C@H]1O,inactive,active,inactive
C[C@@H]1CN([C@H](C)CO)C(=O)c2cc(NC(=O)c3ccncc3)ccc2O[C@@H](C)CCCCO[C@H]1CN(C)S(=O)(=O)c1ccc(Cl)cc1,inactive,active,inactive
C[C@@H]1CN([C@H](C)CO)C(=O)CCCn2nncc2CO[C@@H]1CN(C)S(=O)(=O)c1ccc2ccccc2c1,inactive,inactive,inactive
COc1ccc(S(=O)(=O)Nc2cccc3c2O[C@H](CN(C)Cc2ccc(-c4ccccc4)cc2)[C@@H](C)CN([C@@H](C)CO)C3=O)cc1,inactive,inactive,inactive
CN(C)Cc1cn(CC[C@H]2CC[C@@H](NS(=O)(=O)c3ccccc3)[C@@H](CO)O2)nn1,inactive,inactive,inactive
CN(C)C(=O)C[C@H]1CC[C@H]2[C@@H](COC[C@@H](O)CN2S(=O)(=O)c2ccccc2)O1,inactive,inactive,inactive
C[C@H]1CN([C@@H](C)CO)C(=O)Cc2cc(NC(=O)CCC(F)(F)F)ccc2O[C@@H]1CN(C)S(C)(=O)=O,inactive,inactive,inactive
O=C(O)[C@]1(O)C[C@H](O)[C@@H](O)[C@@H](O)C1,inactive,inactive,inactive
C[C@@H]1CCCCO[C@H](CN(C)Cc2ccc(Cl)c(Cl)c2)[C@H](C)CN([C@@H](C)CO)C(=O)c2cc(NS(=O)(=O)c3ccc(Cl)cc3)ccc2O1,inactive,active,inactive
C=CC(=O)NCCN1CCCCC1,inactive,inactive,inactive
NC(=O)CSc1nnnn1-c1cccc(O)c1,inactive,inactive,inactive
C[C@@H](CO)N1C(=O)[C@@H]2[C@H]3C(=O)OCCC=C[C@H]3O[C@]23C=CCN(Cn2nnc4ccccc42)C(=O)[C@@H]13,inactive,inactive,inactive
C[C@H](CO)N1C[C@H](C)[C@@H](CN(C)S(=O)(=O)c2ccc(Cl)cc2)OCCCC[C@H](C)Oc2ccc(NC(=O)Cc3ccccc3)cc2C1=O,inactive,active,inactive
CCS(=O)(=O)N1CC[C@]2(CC1)CN([C@@H](CO)c1[nH]c3cc(ccc3c12)OC)C(=O)Nc1c(noc1C)C,inactive,inactive,inactive
C[C@@H]1CN([C@@H](C)CO)C(=O)c2cc(NC(=O)NC3CCCCC3)ccc2O[C@@H](C)CCCCO[C@@H]1CN(C)C(=O)Cc1ccccc1,inactive,inactive,inactive
C=C(C)C1CCC2(C)CCC3(C)C(CCC4C5(C)CCC(OC(C)=O)C(C)(C)C5CCC43C)C12 (stereo not drawn),inactive,inactive,inactive
O=C(C[C@H]1CC[C@H]2[C@@H](COC[C@@H](O)CN2C(=O)Nc2cccc(F)c2)O1)NCCCN1CCOCC1,inactive,inactive,inactive
O=C1CCC(C(=O)O)CC1,inactive,inactive,inactive
CC(C)CC#Cc1ccc2c(c1)O[C@H](CN(C)CC1CCOCC1)[C@H](C)CN([C@@H](C)CO)S2(=O)=O,inactive,inactive,inactive
C[C@@H]1CCCCO[C@H](CN(C)S(=O)(=O)c2cccs2)[C@@H](C)CN([C@H](C)CO)C(=O)c2cc(NC(=O)Nc3ccc(C(F)(F)F)cc3)ccc2O1,inactive,inactive,inactive
C[C@@H]1CCCCO[C@@H](CN(C)C(=O)Nc2ccc3c(c2)OCO3)[C@H](C)CN([C@H](C)CO)C(=O)c2cc(NC(=O)Nc3ccccc3)ccc2O1,inactive,active,inactive

# Reference: the antibiotic and cytotoxicity screens of Wong et al. (2023)
